According to PubChem BioAssay AID588855 (National Center for Advancing Translational Sciences (NCATS), 2011):
Values joined by “and” are separate entries in the source; they are usually repeats but may differ in a detail not shown here. Equal values may be shown once. The campaign covered roughly 410,000 compounds. About 5,000 (1.2%) were called active. This list was built around the results that the source calls inconclusive (neither active nor inactive); the mix of calls is not that of the screen. Calls follow the shape of the dose curve; as a rule, active = well fitted inhibition curve with a large enough effect; inconclusive = small, poorly fitted or top-dose-only effect; inactive = no such curve, though single readings can be large or run the other way. Potencies beside an inconclusive call are fits to weak or partial responses and may not hold up.

assay: qHTS for Inhibitors of TGF-b; details: HepG2 CAGA-GFP TGF-b/SMAD3 reporter, GFP fluorescence, 18 h, TGF-beta stimulated, 500 pg/mL final; series mostly up to 46.1 µM; also: nearly all actives have a fitted effect of over 65% in size
In short: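 Inhibition of TGF-beta-driven CAGA-GFP reporter expression in HEPG2 cells is measured by cellular GFP fluorescence after 18 h stimulation with 500 pg/mL recombinant TGF-beta in 1% FBS medium at 37 degrees C.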
Potency is read from the fitted curve at half-maximal effect; tags tell the direction and shape of the fitted curve.

| SMILES | Potency |
| --- | --- |
| Cc1ccc(S(=O)(=O)N(C(=O)c2ccco2)c2cc3sc(=O)oc3c3ccccc23)cc1 | inconclusive: 25.1 µM [inhibitor, single point] |
| Cc1ccc(CNC(=O)c2nn(C)c3c2CSc2ccc(C)cc2-3)cc1 | inconclusive: 15.8 µM [inhibitor, single point] |
| COC(=O)c1ccccc1NC(=O)c1ccc(=O)n(Cc2cccc(C)c2)c1 | inactive |
| Cc1ccc(CCNC(=O)CSCc2nc(-c3ccc(C)cc3)oc2C)cc1 | inconclusive: 14.1 µM [inhibitor, partial curve, poor fit] |
| COc1ccc(S(=O)(=O)N=Nc2c(O)[nH]c3ccccc23)cc1 | inconclusive: 35.5 µM [inhibitor, single point] |
| CCn1c(=O)n(CC)c2cc(N3CCCC3)c(NC(=O)Nc3cc(C)cc(C)c3)cc21 | inactive |
| O=C(Nc1ccccc1F)c1oc2ccccc2c1NC(=O)c1c(F)cccc1F | inconclusive: 2.51 µM [inhibitor, partial curve, poor fit] |
| O=C(N/N=C/c1ccc(Cl)cc1Cl)c1ccncc1 | inactive |
| O=C(N/N=C/c1cn(-c2ccccc2)nc1-c1cccs1)c1ccccc1F | inconclusive: 35.5 µM [inhibitor, single point] |
| Oc1ccc(C[C@H]2CNCCN2CCc2cc(C(F)(F)F)cc(C(F)(F)F)c2)cc1 | inconclusive: 35.5 µM [inhibitor, single point] |
| COC(=O)c1ccc2nc(-c3ccc(F)cc3)c(Cc3ccccc3)n2c1 | inconclusive: 20 µM [inhibitor, single point] |
| Cn1c2c(c(=O)n(C)c1=O)C(C(F)(F)F)(C(F)(F)F)N=C(CCC1CCCCC1)N2 | inconclusive: 17.8 µM [inhibitor, partial curve, poor fit] |
| CCC(=O)N1CCC(C)(C(=O)NCc2ccc(F)cc2)C1 (centres undefined) | inactive |
| O=c1c2ccccc2c(/C=N/n2cnnc2)c(O)n1-c1ccccc1F | inactive |
| Cn1nc(C(=O)NCCc2ccc(Cl)cc2)c2c1-c1ccccc1SC2 | inconclusive: 22.4 µM [inhibitor, single point] |
| C=C(C)CSc1nnc2n(Cc3ccccc3)c(=O)c3c4c(sc3n12)CCC4 | inconclusive: 35.5 µM [inhibitor, single point] |
| COc1ccc(SCC(Cc2ccccc2)N2CCN(CCc3ccccc3)CCC2=O)cc1 (centres undefined) | inconclusive: 12.6 µM [inhibitor, single point] |
| CCN(C(=O)COC(=O)c1ccccc1Nc1ccccc1)c1c(N)n(Cc2ccccc2)c(=O)[nH]c1=O | active: 17.8 µM |
| CCOC(=O)c1c(N)sc(C(=O)OCCOC)c1C | inactive |
| COc1cc(OC)c2c(-c3ccccc3)cc(=O)oc2c1C(CC(=O)N1CCCC1)c1ccc2c(c1)OCO2 (centres undefined) | inconclusive: 35.5 µM [inhibitor, single point] |
| COc1ccc(NS(=O)(=O)c2ccc(-n3cccn3)cc2)cc1OC | inconclusive: 5.62 µM [inhibitor, partial curve, poor fit] |
| CCn1c(Sc2ccc(N)cc2Cl)nc2ccccc21 | inconclusive: 12.6 µM [inhibitor, single point] |

| SMILES | Potency |
| --- | --- |
| CCCc1ccc(OCc2ccc(C(=O)N3CCCC3)o2)cc1 | inconclusive: 15.8 µM [inhibitor, single point] |
| Cc1nc2c(C(=O)NCCc3ccc(Cl)cc3)cnn2c(C)c1Cc1ccc(F)cc1 | active: 7.08 µM |
| CC(C)NC(=O)C1CCN(C(=O)c2cnn(-c3ccccc3)c2-n2cccc2)CC1 | inconclusive: 4.47 µM [inhibitor, full curve, poor fit] |
| S=c1[nH]nc(-c2cc(-c3ccsc3)n[nH]2)n1-c1cccc2ccccc12 | inconclusive: 35.5 µM [inhibitor, single point] |
| Cc1ccc(NS(=O)(=O)c2ccc3c(c2)C(C(C)C)C(=O)N3)cc1C (centres undefined) | inconclusive: 15.8 µM [inhibitor, partial curve] |
| COc1cccc2sc(Nc3nc4ccc(NC(C)=O)cc4s3)nc12 | inconclusive: 35.5 µM [inhibitor, single point] |
| O=C(Cc1cccc(C(F)(F)F)c1)OCN1C(=O)c2ccccc2C1=O | inactive |
| C/C(CCC(C)C)=N\Nc1ccc(S(N)(=O)=O)cc1[N+](=O)[O-] | inconclusive: 25.1 µM [inhibitor, single point] |
| CCOC(=O)[C@@H](C)N(Cc1ccc(OC)cc1)S(=O)(=O)N(Cc1ccccc1)[C@H](C(=O)OC)C(C)C | inconclusive: 35.5 µM [inhibitor, single point] and inconclusive: 22.4 µM [inhibitor, single point] |
| CCN1CCN(c2ccc(S(=O)(=O)N3CCCCC3)cc2NC(=O)/C=C/c2ccc(OC(F)F)cc2)CC1 | inconclusive: 28.2 µM [inhibitor, single point] |
| CC(C)c1ccc(OCC(=O)NCC(c2ccc(Cl)cc2)N2CCOCC2)cc1 (centres undefined) | inconclusive: 15.8 µM [inhibitor, partial curve, poor fit] |
| CCCn1c(NC(=S)Nc2ccccc2)nc2ccccc21 | inconclusive: 8.91 µM [inhibitor, partial curve, poor fit] |
| CC(=O)Oc1ccc(N(C(C)=O)S(=O)(=O)c2ccccc2)c2ccccc12 | inactive |
| O=C(N=C1N=C2C=CC=CN2Cc2ccccc21)c1ccc(S(=O)(=O)N2CCCC2)cc1 | inactive |
| Cc1cc(C)cc(C(=O)NC(=S)Nc2ccc(Cc3ccncc3)cc2)c1 | active: 7.08 µM |
| Cc1ccc(S(=O)(=O)c2nnn3c2nc(N2CCOCC2)c2sccc23)cc1C | inactive |
| COc1ccc(N(CC(=O)NCCSc2ccccc2)S(=O)(=O)c2ccccc2)cc1 | inconclusive: 35.5 µM [inhibitor, single point] |
| Clc1ccc2nc(-c3cccc(SC4CCCCC4)c3)c(NCc3ccccc3)n2c1 | inactive |
| CCC(C(=O)NCCc1cc(OC)ccc1OC)n1nc(C)c2c(C)n(-c3ccccc3)nc2c1=O (centres undefined) | inconclusive: 35.5 µM [inhibitor, single point] |
| COc1ccccc1NC(=O)c1ccccc1NC(=O)c1cc(Cl)ccc1NC(=O)c1ccco1 | inconclusive: 11.2 µM [inhibitor, partial curve] |
| CCN(CC)CCCN1C(=O)C(O)=C(C(=O)c2sc(C)nc2C)C1c1ccco1 (centres undefined) | inactive |
| CSc1cccc(NC(=O)CN(C)S(=O)(=O)c2ccc(C)cc2)c1 | inconclusive: 3.98 µM [inhibitor, full curve, poor fit] |

| SMILES | Potency |
| --- | --- |
| COc1ccc(-n2c(=O)c3ccccc3n(Cc3ccccc3Cl)c2=O)cc1 | inactive |
| Nc1nc2n[nH]nc2c(=O)[nH]1 | inconclusive: 8.91 µM [inhibitor, partial curve, poor fit] and inconclusive: 15.8 µM [inhibitor, partial curve, poor fit] |
| CC(C)Oc1ccc(Nc2ncnc3ccccc23)cc1 | inactive |
| CCOc1c2ccc(C(=O)NCc3cc(C(F)(F)F)cc(C(F)(F)F)c3)cc2nn1C | inconclusive: 6.31 µM [inhibitor, full curve, poor fit] |
| Cc1ccc(-n2ncc(C(=O)NC3CCN(Cc4ccccc4)CC3)c2C2CCN(C(=O)OC(C)(C)C)CC2)cc1C | inconclusive: 11.2 µM [inhibitor, partial curve, poor fit] |
| COc1ccc([C@H]2CC(=O)C=C(c3ccc(NC(C)=O)cc3)C2)cc1OC | inconclusive: 11.2 µM [inhibitor, single point] |
| O=C(/C=C/c1ccc([N+](=O)[O-])o1)NNC(=O)c1ccc(F)cc1 | inconclusive: 15.8 µM [inhibitor, partial curve, poor fit] |
| O=C(CN1C(=O)NC2(CCOc3ccccc32)C1=O)Nc1ccc(Br)cc1F (centres undefined) | inconclusive: 22.4 µM [inhibitor, single point] |
| C=CCn1c(-c2cc(OC)cc(OC)c2)n[nH]c1=S | inactive |
| COc1cc([N+](=O)[O-])ccc1NC(=O)Nc1ccc2c(c1)OCCO2 | inactive |
| Cc1cc(-n2c(C)cc(C(=O)CSc3ccccn3)c2C)no1 | inactive |
| CCCCN(C)C(=O)c1ccc(Nc2nc(C(N)Cc3ccc(C(F)(F)F)cc3)cs2)nc1 (centres undefined) | inconclusive: 35.5 µM [inhibitor, single point] |
| CNc1oc(-c2cccs2)nc1C#N | inconclusive: 1.58 µM [inhibitor, full curve] |
| CC(=O)c1ccc(NC2=C(N3CCOCC3)C(=O)c3ccccc3C2=O)cc1 | inconclusive: 22.4 µM [inhibitor, partial curve, poor fit] |
| COc1cc(/C=C2/SC(=S)N(c3c(C)n(C)n(-c4ccccc4)c3=O)C2=O)ccc1O | inactive |
| CC(=O)C(=Cc1cc(C)n(-c2ccccc2)c1C)C(C)=O | inconclusive: 35.5 µM [inhibitor, single point] |
| C/C(=N/NC(=O)c1cccs1)c1ccco1 | inconclusive: 5.62 µM [inhibitor, single point] |
| C=CC[C@@H](Cc1ccc(F)cc1)C(=O)OC[C@@H]1CCCN1C(=O)[C@H](CC=C)CC(=O)N(CCO)Cc1ccccc1 | inconclusive: 12.6 µM [inhibitor, partial curve, poor fit] |
| Cc1c(C(=O)Oc2cccc3cccnc23)oc2ccccc12 | inconclusive: 35.5 µM [inhibitor, partial curve, poor fit] |
| CCOc1cc(C(=O)N/N=C/C2CC=CCC2)cc(OCC)c1OCC (centres undefined) | inconclusive: 35.5 µM [inhibitor, single point] |
